Reference: article PMC4336329 (PLoS ONE, 2015)
The whole screen tested about 310,000 compounds, of which about 2,200 (0.71%) showed an effect of 50% or more. Effects have a minus sign here. The list shows a part of the results.

The compounds below were run against human ether-à-go-go-related gene (hERG) potassium channel (human, UniProt Q12809) (assay: primary screen, population patch clamp on CHO cells stably expressing hERG).
Sequence of human ether-à-go-go-related gene (hERG) potassium channel (Q12809 whole entry, looked up): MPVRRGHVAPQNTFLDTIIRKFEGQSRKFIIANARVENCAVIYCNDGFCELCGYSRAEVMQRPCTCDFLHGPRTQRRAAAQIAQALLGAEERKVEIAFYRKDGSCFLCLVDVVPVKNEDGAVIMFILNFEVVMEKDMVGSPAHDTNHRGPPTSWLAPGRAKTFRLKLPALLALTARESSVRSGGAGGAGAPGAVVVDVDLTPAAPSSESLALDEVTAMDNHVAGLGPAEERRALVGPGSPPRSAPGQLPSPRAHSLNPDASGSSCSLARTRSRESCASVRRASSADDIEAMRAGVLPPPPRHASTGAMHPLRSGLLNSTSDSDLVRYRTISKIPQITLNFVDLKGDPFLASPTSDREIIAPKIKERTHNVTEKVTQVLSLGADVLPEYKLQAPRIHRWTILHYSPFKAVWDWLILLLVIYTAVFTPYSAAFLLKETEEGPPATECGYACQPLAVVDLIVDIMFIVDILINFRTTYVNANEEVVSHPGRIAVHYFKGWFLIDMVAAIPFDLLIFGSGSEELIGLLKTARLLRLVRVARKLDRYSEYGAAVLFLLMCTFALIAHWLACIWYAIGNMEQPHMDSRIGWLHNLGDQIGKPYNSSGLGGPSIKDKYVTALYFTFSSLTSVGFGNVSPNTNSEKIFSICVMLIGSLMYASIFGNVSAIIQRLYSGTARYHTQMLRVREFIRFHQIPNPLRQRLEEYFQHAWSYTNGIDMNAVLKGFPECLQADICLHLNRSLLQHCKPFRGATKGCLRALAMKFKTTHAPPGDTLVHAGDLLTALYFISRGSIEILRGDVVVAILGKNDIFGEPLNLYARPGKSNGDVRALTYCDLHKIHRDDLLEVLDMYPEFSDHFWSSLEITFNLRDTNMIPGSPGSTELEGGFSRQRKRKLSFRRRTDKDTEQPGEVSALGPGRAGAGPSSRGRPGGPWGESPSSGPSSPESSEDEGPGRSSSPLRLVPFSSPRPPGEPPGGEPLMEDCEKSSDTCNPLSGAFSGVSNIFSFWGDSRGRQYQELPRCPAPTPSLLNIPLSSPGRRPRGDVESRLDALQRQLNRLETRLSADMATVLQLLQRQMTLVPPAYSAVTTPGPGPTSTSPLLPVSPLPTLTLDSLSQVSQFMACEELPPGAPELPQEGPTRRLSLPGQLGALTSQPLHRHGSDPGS

SMILES	hERG current change (%, negative = inhibition) at 1uM [%]
Cn1cccc1C(=O)NCC(c1ccc(F)cc1)N1CCOCC1 (stereo not shown)	5.02
CC(C)(C)NC(=O)CSc1nc(N)cc(=O)[nH]1	5.84
Cc1ccc(C(=O)C(OC(=O)c2cnccn2)c2ccccc2)cc1C (stereo not shown)	9.71
C=CCn1c(SCC(=O)c2c(N)n(CCC)c(=O)n(C)c2=O)nnc1-c1ccncc1	5.83
CCN(CC)S(=O)(=O)c1ccc(C(=O)OC2CCCCC2CN(C)C)cc1 (stereo not shown)	6.49
Oc1ccccc1C1=Nc2ncnn2C(c2ccc(F)cc2)C1 (stereo not shown)	-19.1
N#Cc1nc(-c2cccc3ccccc23)oc1N	13.2
O=C(OCCN1CCCC1=O)c1cc(F)c(F)c(F)c1F	14.3
O=c1c2c(nc3cc(-c4ccc(F)cc4)[nH]n13)CCCC2	0.758
CCOc1ccccc1-c1nnc(SCC(=O)NC2(C#N)CCCC2)o1	10.2
CC(C)C[C@H](NC(=O)c1[nH]cnc1C(=O)N[C@H](C)c1ccccc1)C(=O)OCc1ccccc1	17.5
CCC(CC)C(=O)Nc1cccc(C(=O)N2CCOCC2)c1	8.97
C=C(C)C(=O)OCCCCCCOc1ccc(C(=O)O)cc1	16.9
CCOc1ccc(Oc2ccccc2NC(=O)CCNC(C)=O)cc1	10.3
O=S(=O)(Nc1cc(Cl)ccc1N1CCOCC1)c1ccccc1Cl	7.73
Cc1c(NC(=O)CN2CCN(c3ccc(O)cc3)CC2)c(=O)n(-c2ccccc2)n1C	-1.89
CCN1CCCC(OC(=O)Nc2ccccc2)C1 (stereo not shown)	6.59
COc1ccc(N2CCN(C(=O)CCS(=O)(=O)c3cccc4nsnc34)CC2)cc1	0.263
COc1ccc(/C(C)=N/NC(=O)c2nnn(-c3nonc3N)c2-c2cccs2)cc1	-0.469
N=c1c(S(=O)(=O)c2ccc(Br)cc2)cc2c(=O)n3ccccc3nc2n1C1CCCC1	14.3
CCc1nnc(NC(=O)CSc2nc3c(C)cccc3[nH]2)s1	11.7
CCOc1ccccc1N(C(=O)c1snc(C(N)=O)c1N)C(C(=O)NC1CCCC1)c1cccs1 (stereo not shown)	1.67
O=C(COc1ccc(Cl)cc1)N1CCN(c2cccc(C(F)(F)F)c2)CC1	-0.661

SMILES	hERG current change (%, negative = inhibition) at 1uM [%]
O=C(NN=C1CCCC1)c1ccccc1OCc1ccc(Cl)cc1	1.89
Cc1ccc(S(=O)(=O)NNC(=O)C(O)(c2ccccc2C)c2ccccc2C)cc1	11.7
O=S(=O)(c1cccc2cccnc12)N1CCN(Cc2ccc3c(c2)OCO3)CC1	11.4
CCc1cc(=O)oc2c(C)c(OC(C)C(=O)NCCCN3CCOCC3)ccc12 (stereo not shown)	7.2
COc1cc(/C=N/Nc2ccc(F)cc2F)cc(OC)c1O	8.43
C/C(Cl)=C\Cn1c(O)c(N=O)c2ccccc21	4.4
COc1ccccc1C(=O)C1CCCN(C(=O)c2cccnc2SC)C1 (stereo not shown)	12.5
Cc1noc(C)c1COC(=O)c1cc2ccccc2cc1O	5.86
CC(=O)c1ccc(N2CCN(C(=O)C3CCCN(c4ncnc5c4nc4n5CCCCC4)C3)CC2)cc1 (stereo not shown)	-17.9
Cc1nc2ccc(S(=O)(=O)NCC(=O)N3CCc4ccccc4C3)cc2s1	11
CCOCCCn1cnc2c(c1=O)c1nc3ccccc3nc1n2-c1ccc(C)cc1	-6.46
CCCN1CNC(=S)N(CC2CCCO2)C1 (stereo not shown)	13.2
Cc1cccc(C(=O)N[C@H](C(=O)NCCc2ccc(S(N)(=O)=O)cc2)C(C)C)c1	0.633
Cc1cn([C@@H](CCCCN)C(=O)NCCCCCCCCCCC(=O)N2CCNCC2)nn1	8.81
CC(C)CCNC(=O)CN(C(=O)Cn1nnc(-c2ccc(F)cc2)n1)C1CCCC1	8.91
COc1cc(/C=N/NC(=O)C[n+]2ccccc2)cc(OC)c1OC.[Cl-]	7.2
CCOC(=O)C1CCN(C(=O)Cn2nc(C)n3c(cc4cc(F)ccc43)c2=O)CC1	-15.5
CCOC(=O)N1CCN(C(=O)CN(CC)S(=O)(=O)c2cc(C)ccc2OC)CC1	7.71
CCCc1nnc(SCC(=O)NC2CCCCC2)n1CCOC	15.2
Clc1ccc(Nc2ccccc2)nn1	15.4
COc1ccc(CN2CCCC(CNC(=O)c3ccc(F)cc3)C2)c(C)c1C (stereo not shown)	-46.2
CCCCOC(=O)C1C2C=CC3(CN(CCc4ccccc4)C(=O)C13)O2 (stereo not shown)	6.67
O=c1oc2ccccc2cc1-c1cn2cccnc2n1	13.8

SMILES	hERG current change (%, negative = inhibition) at 1uM [%]
O=c1oc2ccccc2nc1/C=C(O)/C=C/c1ccc(F)cc1	6.52
C=CCn1c(O)c(N=Nc2ccccc2O)c2ccccc21	7.58
CCOC(=O)c1cc(NC(=O)c2ccccc2)c(=O)n2c1oc1ccccc12	6.29
COc1ccc(C(=O)NC2CC2)cc1OC1CCN(Cc2ccccc2O)CC1	-91.5
CC(C)/C=C/C(=O)N1CCC(N2CCC(C(=O)N3CCOCC3)CC2)CC1	7.31
COC(=O)CCCCCNC(=S)Nc1ccc2[nH]c(=O)[nH]c2c1	5.61
CC(=O)O[C@@H]1[C@H]2[C@@H](C[C@@H](C)[C@@H]3C=CC(=O)[C@@]13C)OC(=O)[C@@H]2C	10.1
COCCCNC(=S)NNC(=O)c1cc(C2CC2)nc2ccccc12	14.7
O=C(Cc1ccccn1)c1ccc(F)cc1	12.4
N#CC1=C(N)OC2=C(C(=O)CCC2)C1c1cc2c(cc1Br)OCO2 (stereo not shown)	15
O=C(Nc1ccccc1N1CCCCC1)c1ccc(-c2cc(Cl)ccc2Cl)o1	12.6
Cl.O=C(O)CC1NCCc2ccccc21 (stereo not shown)	12.4
CC(C)(C)NC(=O)C(c1ccncc1)N(C(=O)c1csnn1)C1CC1 (stereo not shown)	7.02
Clc1ccc(Oc2nc(Oc3ccc(Cl)cc3)nc(N3CCOCC3)n2)cc1	-6.07
COC(=O)C1=C(c2ccc(F)cc2F)C[C@@H]2CC[C@H]1N2C(=O)NC1CC1	11.2
O=C(Cc1ccccc1)Nc1ccc(SC(F)F)cc1	2.98
O=C(Oc1ccccc1C(=O)N1CCOCC1)c1ccc(Br)cc1	3.58
O=C(CCN1C(=O)c2cccc([N+](=O)[O-])c2C1=O)Nc1nccs1	4.48
S=c1[nH]ncn2c1cc1oc3ccccc3c12	14.1
O=C(CC1SC(N2CCCC2)=NC1=O)Nc1ccc(C(=O)N2CCN(c3cccc(Cl)c3)CC2)cc1 (stereo not shown)	19.5
CC(Sc1nnnn1C1CCCCC1)C(=O)O (stereo not shown)	13.1
O=C(Nc1ccc(S(=O)(=O)Nc2nccs2)cc1)c1ccc(=O)[nH]c1	3.43
Cc1cc(C)c(C#N)c(SCC(=O)c2cccs2)n1	-3.08

SMILES	hERG current change (%, negative = inhibition) at 1uM [%]
CCc1ccc(C(=O)NNc2ccc(S(N)(=O)=O)cc2)cc1	13.3
C=CCSc1nc(C)c(CC=C)c(=O)[nH]1	14.1
CC(=O)c1ccc(OCCCC(=O)OCC(=O)N2CCN(c3ccccc3)CC2)cc1	15.7
Cc1ncoc1C(=O)Nc1nccs1	3.65
CCCCN1CCc2c([nH]c3ccccc23)C1=O	8.76
O=C(Nc1ncc([N+](=O)[O-])s1)c1ccc2c(c1)OCO2	3.38
Cc1ccc(OCC(=O)NCc2n[nH]c(=O)c3ccccc23)cc1	1.01
Cc1cccc(NC(=O)c2oc3c(c2C)C(=O)CC(C)(C)C3)n1	15
COc1ccc(Cl)cc1NC(=O)N1CCC(C)CC1	7.62
O=C(Nc1ccc(Cl)c(-c2nc3ccccc3[nH]2)c1)c1cccnc1	-16
Nc1[nH]c(=S)nc2nc(-c3ccccc3)c(-c3ccccc3)nc12	10.5
COC(=O)c1ccc2c(c1)C(C)(C)C(/C=C/c1ccc(O)cc1)=[N+]2C.[I-]	-18.6
Cc1cc(C)cc(N(CC(=O)N2CCC(C)CC2)S(C)(=O)=O)c1	-6.55
COc1ccc(NC(=O)C2CCN(C(=O)c3cccs3)CC2)cc1OC	-0.161
O=C(Nc1ccc2c(c1)OCO2)c1cccc2c1C(=O)N(Cc1cccnc1)C2	-6.89
N#Cc1c2n(c3c(=O)n(Cc4ccccc4Cl)cnc13)CCCC2	-2.62
CC(=O)c1cnc(Nc2ccccc2)s1	13.8
COCCSc1nnc(-c2cnccn2)o1	12.7
CCCN(CCC)CCCNC(=O)Cn1cnc2sc(C)c(S(=O)(=O)N3CCCCC3)c2c1=O	11.8
C=COCCNC(=S)Nc1cccc(Cl)c1	8.15
Cc1cc(C)cc(NC(=S)NCCN2CCOCC2)c1	3.61
Cn1c(=O)[nH]c(=O)c2c1nc(Br)n2CCSc1ncccn1	12
